# According to PubChem BioAssay AID686979 (National Center for Advancing Translational Sciences (NCATS), 2013):
# In all, about 420,000 compounds went through this assay and about 50,000 (12%) were called active. The inconclusive results got no clear call from the source; some entries with a clear call stand among them for comparison. Calls come from the whole dose curve; as a rule, active = well fitted inhibition curve with a large enough effect; inconclusive = small, poorly fitted or top-dose-only effect; inactive = flat fitted curve, though single readings scatter. Potencies of inconclusive entries are left out as doubtful fits.
# Assay: qHTS for Inhibitors of human tyrosyl-DNA phosphodiesterase 1 (TDP1): qHTS in cells in presence of CPT; note: nearly all actives have a fitted effect of over 55% in size
# Settings: chicken DT40 Tdp1-/-;hTDP1 cells + 20 nM CPT, ATP luminescence, 48 h; series mostly up to 46.2 µM
# In short: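 Cell growth measured by CellTiter-Glo luminescence after a minimum 48 h, 37 C compound exposure with 20 nM CPT in Tdp1-knockout DT40 cells stably expressing hTDP1, seeded 400/well; qHTS titration format.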
# Potency is the fitted concentration of half-maximal effect; tags give direction and shape of the fitted curve.
row,SMILES,Potency
1,COc1cccc(-c2nc(CS(=O)(=O)CC(=O)Nc3c(C)cccc3C)c(C)o2)c1,"inconclusive [inhibitor, single point]"
2,O=[N+]([O-])c1cc([N+](=O)[O-])c(Oc2cncc(Cl)c2)cc1NN1CCCCC1,"inconclusive [inhibitor, single point]"
3,O=C(CSc1ccccn1)N1CCN(c2ncc(C(F)(F)F)cc2Cl)CC1,"inconclusive [inhibitor, single point]"
4,Clc1cccc(Cl)c1CN1CCN(c2ncccn2)CC1,"inconclusive [inhibitor, partial curve, poor fit]"
5,CC(C)C(=O)Nc1ccc2nn(-c3ccccc3)nc2c1,"inconclusive [inhibitor, single point]"
6,CCN(CC)CCNC(=O)c1ccc(NC(=O)c2cccc(S(=O)(=O)N3CCCCCC3)c2)cc1,"inconclusive [inhibitor, single point]"
7,O=C(NC1CCN(Cc2ccccc2)CC1)c1cccc(S(=O)(=O)Nc2ccc(SC(F)F)cc2)c1,active: 23.1 µM
8,CCC(=O)Nc1ccc(/C(C)=N\NC(=O)c2ccc(OC)cc2)cc1,inactive
9,CC(=O)N1CCc2c(sc3c2c(=O)n(-c2cc(Cl)ccc2C)c(=O)n3Cc2ccccc2F)C1,"inconclusive [inhibitor, single point]"
10,COc1ccc(S(=O)(=O)/N=C2\C=C(Nc3ccc(O)cc3)C(=O)c3ccccc32)cc1,active: 0.82 µM
11,Cc1ccc2ccc(C3C(=O)c4ccccc4C3=O)nc2c1,"inconclusive [inhibitor, single point]"
12,CCCCCCCCNc1ncnc2[nH]ncc12,active: 4.61 µM
13,CN1CCCC1CCNc1ccc2oc3ccccc3c(=O)c2c1 (stereo not given),"inconclusive [inhibitor, single point]"
14,CC(C)CC(=O)Nc1ccccc1OCc1cc(=O)n2ccccc2n1,"inconclusive [inhibitor, single point]"
15,CN1C(=O)CC(N2CCN(CC(=O)N3CCCC3)CC2)C1=O (stereo not given),inactive
16,Cc1ccc(S(=O)(=O)C2(C(=O)N3CCN(c4cc(C)ccc4C)CC3)CC2)cc1,"inconclusive [inhibitor, single point]"
17,CC1(C)OC(C)(C)/C(=C/Nc2ccccc2)C1=O,inactive
18,COc1ccccc1CC(=O)Nc1ccc(Cl)cc1C(=O)O,inactive

row,SMILES,Potency
1,O=C(CSC1=NCCS1)Nc1cccc2ccccc12,"inconclusive [inhibitor, partial curve]"
2,Cc1ccc(S(=O)(=O)N2CCCCC2)cc1NC(=O)c1ccccn1,"inconclusive [inhibitor, single point]"
3,O=C(NCCc1ccccn1)C1CC(=O)N(Cc2ccccc2Cl)C1 (stereo not given),inactive
4,CC(OC(=O)/C(C#N)=C/c1ccc(N(C)C)cc1)C(=O)N(C)c1ccccc1 (stereo not given),"inconclusive [inhibitor, single point]"
5,Oc1ccc(-c2csc(Nc3ncccn3)n2)cc1,"inconclusive [inhibitor, single point]"
6,Cc1oc2c(c1C(=O)Nc1cccc3ccccc13)CCCC2,active: 10.3 µM
7,CN(C)CCCOC(=O)COc1ccc(Br)cc1,inactive
8,COC(=O)c1cc(Cl)ccc1NC(=O)CSc1ncc(S(=O)(=O)c2ccc(Br)cc2)c(=O)[nH]1,inactive
9,O=C(Nc1ccc(Br)cc1F)N1CCC(CN2CCc3ccccc3C2)CC1,"inconclusive [inhibitor, single point]"
10,COc1ccc(-n2c(Cc3cccn3C)nnc2SCC(=O)N2CCCc3ccccc32)cc1,"inconclusive [inhibitor, single point]"
11,CCOC(=O)c1c(NC(=O)/C=C/c2ccc(C)cc2)sc2c1CCCC2,inactive
12,CCOc1ccc(OCC)c(NC(=O)CN2CCC(NC(=O)c3cccc(F)c3)CC2)c1,active: 23.1 µM
13,Cc1ccc(C(=O)CC(c2cccs2)S(=O)(=O)c2ccc(C)cc2)cc1 (stereo not given),"inconclusive [inhibitor, single point]"
14,O=C(OCC(=O)N1CCCC1)c1cccc(Br)c1,inactive
15,CC(=O)Nc1ccc(S(=O)(=O)NC(C(=O)O)C2=CCC=CC2)cc1 (stereo not given),inactive
16,CN(Cc1ccccn1)C(=O)c1cc(COc2ccc(F)cc2Cl)on1,"inconclusive [inhibitor, partial curve]"
17,Cc1cccc(C)c1NC(=O)CN(C)CC(=O)Nc1cc(Cl)ccc1C#N,"inconclusive [inhibitor, single point]"
